In paper PMC545490, “Mapping and mutation of the conserved DNA polymerase interaction motif (DPIM) located in the C-terminal domain of fission yeast DNA polymerase δ subunit Cdc27” (BMC Molecular Biology, 2004):
No constants are given. Whether binding was seen depends on the method and setting. For some of these results: In cells and extracts the contact can be indirect. Some results given as binding are weak or reduced against the parent protein; the word gives no strength. Tags and fused reporters may be left off the sequences shown.

By UniProt entry, the sequences of proteins in these tests, tags left out. Residues count along the entry.
UniProt P09884, residues 291-540: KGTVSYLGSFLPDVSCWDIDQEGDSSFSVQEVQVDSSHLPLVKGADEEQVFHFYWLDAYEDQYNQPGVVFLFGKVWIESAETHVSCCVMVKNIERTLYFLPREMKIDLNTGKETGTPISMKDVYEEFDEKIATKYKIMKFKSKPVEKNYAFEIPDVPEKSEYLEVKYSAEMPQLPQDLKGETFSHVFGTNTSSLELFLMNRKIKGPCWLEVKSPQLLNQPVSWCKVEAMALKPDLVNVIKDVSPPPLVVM

T1: LexA-Pol1-278-527 (S. pombe, UniProt P28040 278-527)
T1 construct: Pol1, catalytic subunit of DNA polymerase α, S. pombe, amino acids 278–527; source: yeast two-hybrid fusion (pBTM116, S. cerevisiae CTY10-5d)
T1 sequence (looked up): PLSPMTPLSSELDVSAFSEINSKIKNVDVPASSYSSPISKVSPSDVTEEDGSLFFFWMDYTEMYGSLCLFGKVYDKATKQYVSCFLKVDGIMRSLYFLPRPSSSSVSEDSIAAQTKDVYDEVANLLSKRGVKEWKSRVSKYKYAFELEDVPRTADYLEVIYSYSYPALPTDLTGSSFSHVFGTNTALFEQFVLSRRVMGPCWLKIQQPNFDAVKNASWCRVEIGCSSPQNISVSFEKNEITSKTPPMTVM

T2: LexA-Pol1(278–477) (S. pombe) (UniProt P28040)
T2 sequence: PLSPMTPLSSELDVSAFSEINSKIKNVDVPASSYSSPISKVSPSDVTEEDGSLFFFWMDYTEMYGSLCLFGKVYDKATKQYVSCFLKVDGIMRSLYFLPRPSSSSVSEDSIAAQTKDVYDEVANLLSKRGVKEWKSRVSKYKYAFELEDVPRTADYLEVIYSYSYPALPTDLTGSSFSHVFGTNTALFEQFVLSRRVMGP

T3: LexA-Pol1(278–497) (S. pombe) (UniProt P28040)
T3 sequence: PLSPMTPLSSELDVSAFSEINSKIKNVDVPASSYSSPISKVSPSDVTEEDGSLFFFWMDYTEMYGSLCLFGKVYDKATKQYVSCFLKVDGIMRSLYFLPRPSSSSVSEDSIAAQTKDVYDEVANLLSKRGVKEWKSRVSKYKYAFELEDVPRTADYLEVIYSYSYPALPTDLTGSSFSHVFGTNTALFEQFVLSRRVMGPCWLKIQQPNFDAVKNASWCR

T4: LexA-Pol1(278–507) (S. pombe) (UniProt P28040)
T4 sequence: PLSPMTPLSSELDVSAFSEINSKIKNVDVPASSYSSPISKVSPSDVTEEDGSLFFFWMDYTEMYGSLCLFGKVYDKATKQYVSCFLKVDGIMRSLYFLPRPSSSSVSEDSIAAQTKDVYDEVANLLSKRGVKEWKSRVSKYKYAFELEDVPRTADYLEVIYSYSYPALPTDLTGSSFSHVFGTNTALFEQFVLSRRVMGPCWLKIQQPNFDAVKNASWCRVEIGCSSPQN

T5: LexA-Pol1(278–487) (S. pombe) (UniProt P28040)
T5 sequence: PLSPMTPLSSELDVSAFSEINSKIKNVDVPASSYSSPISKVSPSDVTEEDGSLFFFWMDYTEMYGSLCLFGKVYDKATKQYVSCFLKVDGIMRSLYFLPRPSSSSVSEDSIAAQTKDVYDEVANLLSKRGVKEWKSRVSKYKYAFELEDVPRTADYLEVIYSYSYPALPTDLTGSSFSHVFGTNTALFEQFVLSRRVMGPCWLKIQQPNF

T6: peptide HsB (human)
T6 sequence (peptide, biotin on the N-terminus (biotin-SGSG)): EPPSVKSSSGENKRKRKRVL

T7: peptide SpA (S. pombe)
T7 sequence (peptide, biotin on the N-terminus (biotin-SGSG)): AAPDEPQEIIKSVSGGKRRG

T8: peptide SpB (S. pombe)
T8 sequence (peptide, biotin on the N-terminus (biotin-SGSG)): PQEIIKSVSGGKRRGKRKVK

T9: peptide SpD (S. pombe)
T9 sequence (peptide, biotin on the N-terminus (biotin-SGSG)): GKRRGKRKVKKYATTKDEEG

T10: peptide HsC (human)
T10 sequence (peptide, biotin on the N-terminus (biotin-SGSG)): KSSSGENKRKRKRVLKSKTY

T11: peptide HsD (human)
T11 sequence (peptide, biotin on the N-terminus (biotin-SGSG)): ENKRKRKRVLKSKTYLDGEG

T12: peptide SpC (S. pombe)
T12 sequence (peptide, biotin on the N-terminus (biotin-SGSG)): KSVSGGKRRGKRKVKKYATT

T13: peptide HsA (human)
T13 sequence (peptide, biotin on the N-terminus (biotin-SGSG)): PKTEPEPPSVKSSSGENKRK

T14: peptide HsE (human)
T14 sequence (peptide, biotin on the N-terminus (biotin-SGSG)): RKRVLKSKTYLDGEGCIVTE

T15: peptide SpE (S. pombe)
T15 sequence (peptide, biotin on the N-terminus (biotin-SGSG)): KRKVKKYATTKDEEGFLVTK

B1: Full-length Cdc27 fused to the activation domain (AD) of the yeast Gal4 protein (protein, UniProt P30261 1-372)
chain: MEEWRNFLDIKVINESSLVTVDNLSLQLDISSEKAQEYLNMFYQGNDFLYPIYLIHGQPIDDEINLEIDEESQPISNFPVLQYILCDKSSLQEKQSRLKSGYKTVIFALSSAPLSDFDELLPAVYEIREKDVLYKKEDADKYGFIFNENSVPRVLKKAPSTHSPQLSVPSKTSTIDKTDTRSTEKTKGKDIFSNARNQKGNSSRKNKKAPLENHKEKEPLLPKEEKLSEQAKRERDDLKNIMQLEDESVSTTSVHDSEDDNLDSNNFQLEIGTEAKSAAPDEPQEIIKSVSGGKRRGKRKVKKYATTKDEEGFLVTKEEEVWESFSEDENISTGTSNVVRNKPTTVNIATKKKNTAQSKPQQKSIMSFFGKK
B2: Pol1-13Myc (protein, UniProt P28040 1-1405)
chain: MRKRNAGIKPSQRFAELRALRQAGKTRASTYESKENEELYDNVSEEEYRKIVRQRLDEDDFVVDDNGAGYVDNGYDEWDQSHYSDEDDENEKGSSGRKRKKSKNVLAEPNQQIGAFFKANAIQPASRIANRKNNEKEDEFMAEILGSIDQDIPERLSTKKGNRSHTTSNAKRRSQKAASSISTTNVVSSDPKKYIPETVPSTPQPASSLPIPSSPPAALETEENVDSQPMELDEPELPVGSDAPIIDVEESIAMKPLMSHDQVDDTASLSKATISQQPLSPMTPLSSELDVSAFSEINSKIKNVDVPASSYSSPISKVSPSDVTEEDGSLFFFWMDYTEMYGSLCLFGKVYDKATKQYVSCFLKVDGIMRSLYFLPRPSSSSVSEDSIAAQTKDVYDEVANLLSKRGVKEWKSRVSKYKYAFELEDVPRTADYLEVIYSYSYPALPTDLTGSSFSHVFGTNTALFEQFVLSRRVMGPCWLKIQQPNFDAVKNASWCRVEIGCSSPQNISVSFEKNEITSKTPPMTVMSLAFRTLINKEQNKQEVVMISARIFENVDIEKGLPANDMPSYSFSLIRPLKQIFPNGFEKLARQHKSSIFCERSEVSLLNNFLNKVRTYDPDVYFGHDFEMCYSVLLSRLKERKIHNWSSIGRLRRSEWPRSFNRSSQQFVEKQIIAGRLMCDLSNDFGRSMIKAQSWSLSEIVLKELDIKRQDINQEKALQSWTDTAHGLLDYLVHCEIDTFFIAAVAFKIQMLQLSKNLTNIAGNSWARTLTGTRAERNEYILLHEFKKNGYIVPDKQQSIRRHAEAFGAEDGLQEESLGKKKDKYKGGLVFEPQKGLYETCILVMDFNSLYPSIIQEYNICFTTVDRSPSNSDSDDQIPDTPSASANQGIFPRLIANLVERRRQIKGLLKDNSATPTQRLQWDIQQQALKLTANSMYGCLGYTKSRFYARPLAVLITYKGREALMNTKELADQMGLQVIYGDTDSVMLNTNVTDKNHALRIGNEFKEKVNERYSKLEIDIDNVYQRMLLHAKKKYAALQLDSQGKPNLDVKGLDMKRREFCTLAKEASKFCLDQILSGELTETVIENIHSYLMDFSEKMRNGKFPANKFIIFNRLGKNPEDYPNGKTMPFVQVALKKKARGENVRVGDVIPFIIAGSDADGHPADRAYSPQEIMNTNSTLVIDYNYYLSHQILPPIERVIAPIEGTNRARLAECLGLDARKYYSHETSESSAFQRYESTLTDDQCFINVSPLLLKCPSCNATSFSLRSVKSLKETLYANTVECDCGYEYSDFTIILQFSSQLRDFINLYYEGILVCDDSSCGNRTRQMSVYGKRCCNKSCRGSVHFEYNDEQLYNQIKFLLKAVQTTTGATRNGIIRCNAINKNISRIMNKNAREFVDMGLIFSS

Assays:
LexA-Pol1-278-527 = biological target: T1, LexA-Pol1-278-527; assay: two-hybrid; Gal4 AD prey (pACT2) and LexA bait (pBTM116) in S. cerevisiae lexA op-lacZ strain CTY10-5d; β-galactosidase activity in Miller units
[1] = biological target: T2, LexA-Pol1(278–477) (S. pombe); assay: as above
[2] = biological target: T3, LexA-Pol1(278–497) (S. pombe); assay: as above
[3] = biological target: T4, LexA-Pol1(278–507) (S. pombe); assay: as above
[4] = biological target: T5, LexA-Pol1(278–487) (S. pombe); assay: as above
[5] = biological target: LexA fusion of amino acids 291–540 of the human Pol α catalytic subunit (human) (UniProt P09884); assay: as above
peptide HsB (human) = biological target: T6, peptide HsB (human); assay: pull-down; biotin-SGSG peptides on Streptavidin-agarose beads; 100 μg fission yeast protein extract, 4°C, 1 hr; washes with NP40 buffer; Pol1-13Myc detected with anti-Myc mAb 9E10; only the target purified
peptide SpA (S. pombe) = biological target: T7, peptide SpA (S. pombe); assay: as above
peptide SpB (S. pombe) = biological target: T8, peptide SpB (S. pombe); assay: as above
peptide SpD (S. pombe) = biological target: T9, peptide SpD (S. pombe); assay: as above
peptide HsC (human) = biological target: T10, peptide HsC (human); assay: as above
peptide HsD (human) = biological target: T11, peptide HsD (human); assay: as above
peptide SpC (S. pombe) = biological target: T12, peptide SpC (S. pombe); assay: as above
peptide HsA (human) = biological target: T13, peptide HsA (human); assay: as above
peptide HsE (human) = biological target: T14, peptide HsE (human); assay: as above
peptide SpE (S. pombe) = biological target: T15, peptide SpE (S. pombe); assay: as above

| binding (LexA-Pol1-278-527) | binding [1] | binding [2] | binding [3] | binding [4] | binding [5] | binding (peptide HsB (human)) | binding (peptide SpA (S. pombe)) | binding (peptide SpB (S. pombe)) | binding (peptide SpD (S. pombe)) | binding (peptide HsC (human)) | binding (peptide HsD (human)) | binding (peptide SpC (S. pombe)) | binding (peptide HsA (human)) | binding (peptide HsE (human)) | binding (peptide SpE (S. pombe)) | Binder |
| --- | --- | --- | --- | --- | --- | --- | --- | --- | --- | --- | --- | --- | --- | --- | --- | --- |
| binds | no binding | no binding | no binding | no binding | no binding |  |  |  |  |  |  |  |  |  |  | B1 |
|  |  |  |  |  |  | binds | no binding | binds | binds | binds | binds | binds | no binding | no binding | no binding | B2 |
